The list shows a part of the results.
Legend:
Test in all cases: glycan array binding signal (z-score within array); higher = stronger binding
Settings in all cases: glycan notation: IUPAC condensed, linker removed
[1] = target: Neu(a2-3)Gal(b1-4)Glc
Summary of the method: (§1)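 From the Consortium for Functional Glycomics database, 3228 arrays were curated, keeping only those whose protein sequence was available. Binding is given as a within-array Z-score averaged across arrays sharing a protein sequence and across linkers. Negative Z-scores can be read as non-binding.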

[2] = target: Neu(a2-3)Gal(b1-4)GlcNAc(b1-3)Gal(b1-4)[Fuc(a1-3)]GlcNAc(b1-3)Gal(b1-4)Glc
Summary of the method: as §1

[3] = target: Neu(a2-3)Gal(b1-4)GlcNAc6S(b1-3)Gal(b1-4)Glc
Summary of the method: as §1

[4] = target: Neu(a2-3)Gal(b1-4)[Fuc(a1-3)]GlcNAc(b1-3)Gal(b1-4)Glc
Summary of the method: as §1

[5] = target: Neu(a2-3)Gal(b1-4)[Fuc(a1-3)]GlcNAc6S(b1-3)Gal(b1-4)Glc
Summary of the method: as §1

[6] = target: Neu(a2-3)Gal6S(b1-4)[Fuc(a1-3)]GlcN(b1-3)Gal(b1-4)Glc
Summary of the method: as §1

[7] = target: Neu(a2-6)Gal(b1-4)Glc
Summary of the method: as §1

[8] = target: Neu4Ac5Ac(a2-3)Gal(b1-4)Glc
Summary of the method: as §1

[9] = target: Neu4Me5Ac(a2-3)Gal(b1-4)Glc
Summary of the method: as §1

[10] = target: Neu5Ac(a2-2)Glc
Summary of the method: as §1

[11] = target: Neu5Ac(a2-3)4dGal(b1-4)[Fuc(a1-3)]GlcNAc(b1-3)Gal
Summary of the method: as §1

[12] = target: Neu5Ac(a2-3)6dGal(b1-4)[Fuc(a1-3)]GlcNAc(b1-3)Gal
Summary of the method: as §1

[13] = target: Neu5Ac(a2-3)Gal
Summary of the method: as §1

[14] = target: Neu5Ac(a2-3)Gal(b1-3)6dGalNAc
Summary of the method: as §1

[15] = target: Neu5Ac(a2-3)Gal(b1-3)GalNAc
Summary of the method: as §1

[16] = target: Neu5Ac(a2-3)Gal(b1-3)GalNAc(b1-4)[Neu5Ac(a2-3)]Gal(b1-4)Glc
Summary of the method: as §1

[17] = target: Neu5Ac(a2-3)Gal(b1-3)GalNAc(b1-4)[Neu5Ac(a2-8)Neu5Ac(a2-3)]Gal(b1-4)Glc
Summary of the method: as §1

[18] = target: Neu5Ac(a2-3)Gal(b1-3)GalNAc6S
Summary of the method: as §1

[19] = target: Neu5Ac(a2-3)Gal(b1-3)GalNAc6S(b1-4)Gal(b1-4)Glc
Summary of the method: as §1

[20] = target: Neu5Ac(a2-3)Gal(b1-3)GlcNAc
Summary of the method: as §1

[21] = target: Neu5Ac(a2-3)Gal(b1-3)GlcNAc(b1-3)Gal(b1-4)Glc
Summary of the method: as §1

[22] = target: Neu5Ac(a2-3)Gal(b1-3)GlcNAc(b1-3)[Fuc(a1-3)[Gal(b1-4)]GlcNAc(b1-6)]Gal(b1-4)Glc
Summary of the method: as §1

[23] = target: Neu5Ac(a2-3)Gal(b1-3)[Fuc(a1-3)]GlcN(b1-3)Gal(b1-4)Glc
Summary of the method: as §1

[24] = target: Neu5Ac(a2-3)Gal(b1-3)[Fuc(a1-4)]GlcNAc
Summary of the method: as §1

[25] = target: Neu5Ac(a2-3)Gal(b1-3)[Fuc(a1-4)]GlcNAc(b1-3)Gal(b1-4)Glc
Summary of the method: as §1

[26] = target: Neu5Ac(a2-3)Gal(b1-3)[Neu5Ac(a2-6)]GalNAc
Summary of the method: as §1

[27] = target: Neu5Ac(a2-3)Gal(b1-3)[Neu5Ac(a2-6)]GalNAc(b1-4)Gal(b1-4)Glc
Summary of the method: as §1

[28] = target: Neu5Ac(a2-3)Gal(b1-3)[Neu5Ac(a2-6)]GlcNAc(b1-3)Gal(b1-4)Glc
Summary of the method: as §1

[29] = target: Neu5Ac(a2-3)Gal(b1-4)Glc
Summary of the method: as §1

[30] = target: Neu5Ac(a2-3)Gal(b1-4)GlcNAc
Summary of the method: as §1

[31] = target: Neu5Ac(a2-3)Gal(b1-4)GlcNAc(b1-2)Man(a1-3)[Neu5Ac(a2-3)Gal(b1-4)GlcNAc(b1-2)Man(a1-6)]Man(b1-4)GlcNAc(b1-4)[Fuc(a1-6)]GlcNAc
Summary of the method: as §1

[32] = target: Neu5Ac(a2-3)Gal(b1-4)GlcNAc(b1-3)Gal(b1-4)Glc
Summary of the method: as §1

[33] = target: Neu5Ac(a2-3)Gal(b1-4)GlcNAc(b1-6)GalNAc(a1-3)Gal(b1-4)Glc
Summary of the method: as §1

[34] = target: Neu5Ac(a2-3)Gal(b1-4)GlcNAc6S(b1-3)Gal6S(b1-3)GlcNAc6S
Summary of the method: as §1

[35] = target: Neu5Ac(a2-3)Gal(b1-4)[3dFuc(a1-3)]GlcNAc(b1-3)Gal
Summary of the method: as §1

[36] = target: Neu5Ac(a2-3)Gal(b1-4)[4dFuc(a1-3)]GlcNAc(b1-3)Gal
Summary of the method: as §1

[37] = target: Neu5Ac(a2-3)Gal(b1-4)[6dTal(a1-3)]GlcNAc(b1-3)Gal
Summary of the method: as §1

[38] = target: Neu5Ac(a2-3)Gal(b1-4)[Fuc(a1-3)]Glc
Summary of the method: as §1

[39] = target: Neu5Ac(a2-3)Gal(b1-4)[Fuc(a1-3)]GlcNAc
Summary of the method: as §1

[40] = target: Neu5Ac(a2-3)Gal(b1-4)[Fuc(a1-3)]GlcNAc(b1-3)Gal
Summary of the method: as §1

[41] = target: Neu5Ac(a2-3)Gal(b1-4)[Fuc(a1-3)]GlcNAc(b1-3)Gal(b1-4)Glc
Summary of the method: as §1

[42] = target: Neu5Ac(a2-3)Gal(b1-4)[Fuc(a1-3)]GlcNAc(b1-3)Gal(b1-4)[Fuc(a1-3)]GlcNAc(b1-3)Gal(b1-4)Glc
Summary of the method: as §1

[43] = target: Neu5Ac(a2-3)Gal(b1-4)[Fuc(a1-3)]GlcNAc(b1-4)GalNAc(b1-3)Gal(b1-4)Glc
Summary of the method: as §1

[44] = target: Neu5Ac(a2-3)Gal(b1-4)[Fuc(a1-3)]GlcNAc(b1-6)Gal(b1-4)Glc
Summary of the method: as §1

[45] = target: Neu5Ac(a2-3)Gal(b1-4)[Fuc(a1-3)]GlcNAc6S(b1-3)Gal(b1-4)Glc
Summary of the method: as §1

B1: HysACBM (Streptococcus pneumoniae), Q54873 (protein)
chain: KNLVENGDFGQTEDGSSPWTGSKAQGWSAWVDQKNSADASTRVIEAKDGAITISSHEKLRAALHRMVPIEAKKKYKLRFKIKTDNKIGIAKVRIIEESGKDKRLWNSATTSGTKDWQTIEADYSPTLDVDKIKLELFYETGTGTVSFKDIELVEVADQLS
glycan array binding signal (z-score) [1]: 0.258 | glycan array binding signal (z-score) [2]: -0.091 | glycan array binding signal (z-score) [3]: -0.091 | glycan array binding signal (z-score) [4]: -0.091 | glycan array binding signal (z-score) [5]: 0.258 | glycan array binding signal (z-score) [6]: -0.091 | glycan array binding signal (z-score) [7]: 0.823 | glycan array binding signal (z-score) [8]: -0.091 | glycan array binding signal (z-score) [9]: -0.091 | glycan array binding signal (z-score) [10]: -0.091 | glycan array binding signal (z-score) [11]: -0.091 | glycan array binding signal (z-score) [12]: -0.045 | glycan array binding signal (z-score) [13]: -0.049 | glycan array binding signal (z-score) [14]: -0.091 | glycan array binding signal (z-score) [15]: -0.091 | glycan array binding signal (z-score) [16]: -0.091 | glycan array binding signal (z-score) [17]: -0.091 | glycan array binding signal (z-score) [18]: -0.091 | glycan array binding signal (z-score) [19]: -0.091 | glycan array binding signal (z-score) [20]: -0.091 | glycan array binding signal (z-score) [21]: -0.091 | glycan array binding signal (z-score) [22]: -0.091 | glycan array binding signal (z-score) [23]: -0.091 | glycan array binding signal (z-score) [24]: -0.007 | glycan array binding signal (z-score) [25]: -0.091 | glycan array binding signal (z-score) [26]: -0.091 | glycan array binding signal (z-score) [27]: -0.054 | glycan array binding signal (z-score) [28]: -0.091 | glycan array binding signal (z-score) [29]: -0.069 | glycan array binding signal (z-score) [30]: -0.091 | glycan array binding signal (z-score) [31]: -0.091 | glycan array binding signal (z-score) [32]: -0.052 | glycan array binding signal (z-score) [33]: -0.091 | glycan array binding signal (z-score) [34]: -0.091 | glycan array binding signal (z-score) [35]: -0.091 | glycan array binding signal (z-score) [36]: -0.091 | glycan array binding signal (z-score) [37]: -0.091 | glycan array binding signal (z-score) [38]: -0.091 | glycan array binding signal (z-score) [39]: -0.091 | glycan array binding signal (z-score) [40]: -0.091 | glycan array binding signal (z-score) [41]: -0.063 | glycan array binding signal (z-score) [42]: -0.091 | glycan array binding signal (z-score) [43]: -0.091 | glycan array binding signal (z-score) [44]: -0.091 | glycan array binding signal (z-score) [45]: -0.091
